# Measured values as given in PubChem BioAssay AID485294 (National Center for Advancing Translational Sciences (NCATS), 2010).
# The campaign covered roughly 370,000 compounds. About 150 (0.041%) were called active. The shares of active, inactive and inconclusive entries below differ from those in the screen. The call rests on the fitted dose curve; in most records, active means well fitted inhibition curve with a large enough effect; inconclusive means small, poorly fitted or top-dose-only effect; inactive means flat fitted curve, though single readings scatter. Potencies of inconclusive entries are left out as doubtful fits.
# Target: Beta-lactamase (Escherichia coli (strain K12)) (UniProt P00811)
# Assay: qHTS Inhibitors of AmpC Beta-Lactamase (assay with detergent); further: nearly all actives have a fitted effect of over 25% in size;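 on activity change, negative = inhibition: 0% = no-compound wells and -100% = no-enzyme wells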
# Conditions: AmpC hydrolysis of nitrocefin, absorbance 480 nm, 0.01% Triton; activity change, negative = inhibition: at 114 µM (top of the series)
# In short: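 AmpC (5.3 nM in the dispensed reagent) in 20 mM phosphate pH 7.0 with 0.01% (detergent screen) or 0.0001% Triton X-100 was preincubated with compounds for 15 min at room temperature. Nitrocefin was then added from an 800 uM solution, and hydrolysis was followed at 480 nm.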
# Potency means the concentration at half of the fitted maximal effect; tags describe the fitted curve by direction and shape.
# Sequence of UniProt P00811 (P00811 whole entry, looked up): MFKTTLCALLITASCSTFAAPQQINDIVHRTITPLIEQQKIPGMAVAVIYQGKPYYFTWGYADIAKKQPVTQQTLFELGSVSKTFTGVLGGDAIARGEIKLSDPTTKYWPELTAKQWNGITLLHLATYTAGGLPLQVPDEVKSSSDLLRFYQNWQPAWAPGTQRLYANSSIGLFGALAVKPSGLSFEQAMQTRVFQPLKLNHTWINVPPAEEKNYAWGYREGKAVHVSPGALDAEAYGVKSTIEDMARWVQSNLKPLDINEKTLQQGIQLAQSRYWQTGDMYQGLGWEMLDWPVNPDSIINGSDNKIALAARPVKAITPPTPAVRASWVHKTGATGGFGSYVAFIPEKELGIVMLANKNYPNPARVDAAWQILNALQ
Structure (SMILES),Potency,"activity change, negative = inhibition"
CCOc1cc(NC(=O)c2ccco2)c(OCC)cc1NC(=O)Cc1ccc(OC)c(OC)c1,"inconclusive [inhibitor, full curve, poor fit]",
O=C(Cn1cnc2sc(-c3ccccc3)cc2c1=O)NCc1ccco1,,inactive: -5.59%
CCc1nnc(NC(=O)c2cccc(NC(=O)C(C)C)c2)s1,"inconclusive [inhibitor, full curve, poor fit]",
Cc1ccc2oc(-c3ccc(C)c(NC(=O)/C=C/c4ccco4)c3)nc2c1,,inactive: -1.44%
CCOC(=O)Cn1nc(-c2ccc(C)cc2)ccc1=O,,inactive: 3.29%
CCCc1nc2ccc(NC(=O)c3cccs3)cc2c(=O)n1Cc1ccccc1Cl,"inconclusive [inhibitor, single point]",
CCOC(=O)[C@@H]1[C@H]2COc3ccc(Br)cc3[C@H]2N2C(=O)N(c3ccc(Cl)cc3)C(=O)[C@@]12C,"inconclusive [inhibitor, full curve, poor fit]",
CCOC(=O)CSc1nc2cc3c(cc2cc1C)OCO3,,inactive: -2.48%
COc1cccc(-c2c(C(=O)N/N=C(\C)COc3ccccc3)nnn2-c2nonc2N)c1,"inconclusive [inhibitor, partial curve, poor fit]",
COc1ccc(/C=C/C(=O)Nc2ccccc2C(F)(F)F)cc1,"inconclusive [inhibitor, partial curve, poor fit]",
CCOC(=O)C1CCN(c2c(N3CCN(c4ccccc4OC)CC3)c(=O)c2=O)CC1,"inconclusive [inhibitor, full curve]",
COc1ccc(CNC(=O)CNS(=O)(=O)c2cccs2)cc1,"inconclusive [inhibitor, full curve]",
Cc1cc(CN2C(=O)c3ccccc3C2=O)cc(N2CCOCC2)c1,"inconclusive [inhibitor, full curve]",
CC1=C(C#N)C(c2ccccc2)C2=C(N1)c1ccccc1C2=O (stereo not drawn),"inconclusive [inhibitor, partial curve]",
COc1ccc(OC)c(NC(=O)C23CCC(C)(C(=O)C2)C3(C)C)c1 (stereo not drawn),"inconclusive [inhibitor, full curve, poor fit]",
COC(=O)Cn1ncc2c3ccccc3n(C)c2c1=O,"inconclusive [inhibitor, full curve]",
CCCCSc1nnc2c(n1)OC(c1ccc(Br)s1)Nc1ccccc1-2 (stereo not drawn),,inactive: 6.65%
O=C(O)CSc1nnc(-c2ccccc2)c(-c2ccccc2)n1,,inactive: 0.196%
Cc1ccc(NC(=O)CN(Cc2ccccc2)S(=O)(=O)c2ccc3nc(C)sc3c2)c(C)c1,,inactive: 12.9%
COc1cc(S(=O)(=O)N(Cc2ccco2)C2CCCC2)ccc1-n1cnnn1,"inconclusive [inhibitor, partial curve]",
COc1ccc2nc(NC(=O)CSc3nc4cccnc4n3C)sc2c1,"inconclusive [inhibitor, partial curve, poor fit]",
COCCN(CC(=O)Nc1cccc(C)c1C)C(=O)Cc1cccs1,"inconclusive [inhibitor, full curve, poor fit]",

Structure (SMILES),Potency,"activity change, negative = inhibition"
COc1cccc(NC(=O)Cn2cc3c(n2)CCCCC3)c1,"inconclusive [inhibitor, partial curve]",
COc1ccc(C(=O)NC2CCCc3ccccc32)cc1 (stereo not drawn),,inactive: 1.23%
Cc1ccc(NC(=O)Cn2nc(C)c3ccccc3c2=O)cc1,"inconclusive [inhibitor, full curve, poor fit]",
Cc1ccsc1C(=O)N1CCCC(CCC(=O)NCc2ccc(F)c(F)c2)C1 (stereo not drawn),,inactive: -7.9%
O=S(=O)([N-]c1nc2ccccc2nc1-n1cc[n+](Cc2ccccc2)c1)c1ccc(Cl)cc1,,inactive: 3.65%
COc1ccc(C(=O)c2cn(CC(=O)Nc3cc(C)ccc3C)c3nc(C)ccc3c2=O)cc1,,inactive: 14.7%
CCOC(=O)N[C@H](Cc1c[nH]c2ccccc12)C(=O)Nc1cccc(Cl)c1,,inactive: 5.3%
O=C(OCC#CCSc1nnc(-c2cccc3ccccc23)o1)c1cccc2[nH]ccc12,"inconclusive [inhibitor, full curve, poor fit]",
COc1ccc(C(=O)CSc2nc(N)nc(SC)c2C#N)cc1,"inconclusive [inhibitor, single point]",
O=C(Cc1ccccc1)N1CCCC1c1ccccc1 (stereo not drawn),"inconclusive [inhibitor, partial curve, poor fit]",
CCCCN1Cc2cc(C(=O)c3cc(OC)ccc3O)cnc2NC1=O,"inconclusive [inhibitor, full curve, poor fit]",
CCCCOc1ccc(C(=O)N/C(=C/C=C/c2ccccc2)C(=O)NCCO)cc1,"inconclusive [inhibitor, full curve]",
O=C(c1cc(=O)c2ccccc2o1)N(Cc1ccccc1)C1CCS(=O)(=O)C1 (stereo not drawn),,inactive: -8.33%
CC(=O)C1=C(C)NC(SCc2cccc([N+](=O)[O-])c2)=C(C#N)C1c1ccco1 (stereo not drawn),"inconclusive [inhibitor, full curve, poor fit]",
O=C(COc1ccc2ccc(=O)oc2c1)NCc1ccccn1,"inconclusive [inhibitor, partial curve]",
Cc1cc(C)cc(OCC(=O)NNC(=O)CCC(=O)NCc2ccccc2)c1,"inconclusive [inhibitor, full curve, poor fit]",
CC(C)(C)N1CC(OC(N)=O)C1,"inconclusive [inhibitor, single point]",
COC(=O)C1=C(C)N(CCCC(=O)O)C(=O)NC1c1ccc(Br)cc1 (stereo not drawn),"inconclusive [inhibitor, full curve, poor fit]",
COc1ccccc1NC(=O)CSc1nc(=O)n(CCN2CCOCC2)c2c1CCC2,"inconclusive [inhibitor, partial curve, poor fit]",
Cc1c(CCOC(=O)CC23CC4CC(CC(C4)C2)C3)sc[n+]1Cc1ccccc1,,inactive: -8.61%
Cc1nn2c(c1-c1ccccc1)NC1=C(C(=O)CCC1)C2c1ccccc1 (stereo not drawn),"inconclusive [inhibitor, full curve, poor fit]",
